At least one peptide structure holds a part that was inferred or is arguable (an end, a ring closure or a residue). Where a SMILES comes first, the peptide text is derived from it. [ ]: non-standard residue; d: D form. The star is where a group is joined. X2 = CC(C)C[C@@H](CN[C@@H](CC(C)C)C(N)=O)N*; dNMeF = CN[C@H](Cc1ccccc1)C(=O)O; X3 = CCC(C)C(C)N*
Assays:
[1] = tested on: BN receptors on the Swiss 3T3 mouse fibroblast cell line; test: Test 1: displacement of [¹²⁵I-Tyr⁴]-BN from BN receptors on Swiss 3T3 cells; format: binding; conditions: statement in words on the data of Table 1
Protocol: The biological investigation of the new compounds of the invention was carried out in four tests. The BN-antagonizing effect of the compounds in question was determined in Test 1, based on measuring the displacement of the labelled [¹²⁵I-Tyr⁴]-BN from the BN receptors being present on the Swiss 3T3 mouse fibroblast cells. Test 2 and Test 3 were used to study the inhibitory effect of the compounds of the invention on the proliferation and propagation of NCI-H69 small-cell lung cancer cells. The inhibitory effect of the compounds of the invention on non-small-cell lung cancer cells and epithelial-cell lung cancer cells was investigated in Test 4.
Study of the binding of target compounds to BN receptors on the Swiss 3T3 mouse fibroblast cell line
Swiss 3T3 mouse fibroblast cells were grown on tissue-cultivating plates containing 24 holes in a D-MEM culture medium containing FCS of 10 % until a confluent and resting state (3x10⁵ cell/hole). The cells were washed 3 times with 0.5 ml of D-MEM of pH 7.4 (containing 0.2 % of BSA and 24 mmol of HEPES, and cooled to 4 °C), i.e. incubation mixture, each. […] At the end of the reaction the cells were washed twice with the incubation mixture and then 3 times with PBS (pH = 7.4).
The washings were carried out with 750 µl volumes of the ice-cold liquids each. The cells were solubilized by adding 750 µl of 0.5 M sodium hydroxide solution, carried over into test-tubes by pipette and the radio-activity bound to the cells was measured. The grade of aspecific binding was determined in the presence of a high concentration (10⁻⁶ mol/l) of cold [Tyr⁴]-BN. The amount of the specifically bound, labelled hormone was expressed as the percentage of the maximum binding, i.e. the specific binding in the absence of the compounds to be tested, as shown in Table 1.

[2] = tested on: NCI-H69 small-cell lung cancer cell line; test: Test 2: inhibition of proliferation by ³H-thymidine incorporation; format: cell-based; conditions: for Uptake as percentage of control: ³H-thymidine uptake, 72 hours + 24 hours
[3] = tested on: NCI-H69 small-cell lung cancer cells; test: Test 3: inhibition of propagation (cell number); format: cell-based; conditions: statement in words on the data of Table 3; 10 and 50 µmol/l

| Structure (SMILES) | BN-antagonizing effect [1] | Uptake as percentage of control ([2]; 3.125 µmol/l compound) [%] | Uptake as percentage of control ([2]; 6.25 µmol/l compound) [%] | Uptake as percentage of control ([2]; 12.5 µmol/l compound) [%] | Uptake as percentage of control ([2]; 25 µmol/l compound) [%] | Uptake as percentage of control ([2]; 50 µmol/l compound) [%] | Uptake as percentage of control ([2]; 100 µmol/l compound) [%] | Uptake as percentage of control ([2]; 200 µmol/l compound) [%] | Uptake as percentage of control ([2]; 1.56 µmol/l compound) [%] | Uptake as percentage of control ([2]; 0.75 µmol/l compound) [%] | inhibitory effect on the maturation and propagation of NCI-H69 small-cell lung cancer cells [3] | inhibitory effect on the maturation and propagation of NCI-H69 small-cell lung cancer cells ([2]; statement in words on the data of Table 2) |
| --- | --- | --- | --- | --- | --- | --- | --- | --- | --- | --- | --- | --- |
| CC(C)C[C@@H](CN[C@@H](CC(C)C)C(N)=O)NC(=O)[C@@H](Cc1c[nH]c2ccccc12)NC(=O)[C@H](Cc1ccccc1)NC(=O)[C@@H](Cc1c[nH]c2ccccc12)NC(=O)Cc1ccc(O)cc1 [(1)] | avoided | 77 | 34 | 44 | 39 | 30 | 2 | 1.3 | – | – | – | – |
| CN[C@H](Cc1ccccc1)C(=O)N[C@H](Cc1c[nH]c2ccccc12)C(=O)N[C@@H](Cc1ccc(O)cc1)C(=O)N[C@H](Cc1c[nH]c2ccccc12)C(=O)N[C@H](CN[C@@H](CC(C)C)C(N)=O)CC(C)C [(6)] (H-[dNMeF][dW]Y[dW]-X2) | – | 65 | 63 | 58 | 49 | 44 | – | – | 82 | – | – | – |
| CC(C)C[C@@H](CN[C@@H](CC(C)C)C(N)=O)NC(=O)[C@@H](Cc1c[nH]c2ccccc12)NC(=O)[C@H](Cc1ccccc1)NC(=O)[C@@H](Cc1c[nH]c2ccccc12)NC(=O)[C@H](N)Cc1ccc(O)cc1 [(4)] (H-[dY][dW]F[dW]-X2) | avoided | 88 | 59 | 51 | 9 | 5 | – | – | 76 | 101 | – | – |
| CN[C@H](Cc1ccccc1)C(=O)N[C@H](Cc1c[nH]c2ccccc12)C(=O)N[C@@H](Cc1ccccc1)C(=O)N[C@H](Cc1c[nH]c2ccccc12)C(=O)N[C@H](CN[C@@H](CC(C)C)C(N)=O)CC(C)C [(2)] (H-[dNMeF][dW]F[dW]-X2) | avoided | 51 | 20 | 8 | 4 | 4 | 4 | 1.7 | 48 | 75 | even stronger than that of the reference substance of the formula (I) | even stronger than that of the reference substance of the formula (I) |
| CCC(C)C(C)NC(=O)[C@H](CC(C)C)NC(=O)[C@@H](Cc1c[nH]c2ccccc12)NC(=O)[C@H](Cc1ccccc1)NC(=O)[C@@H](Cc1c[nH]c2ccccc12)NC(=O)[C@@H](Cc1ccccc1)NC (stereo partly drawn) [(3)] (H-[dNMeF][dW]F[dW]L-X3) | avoided | 49 | 34 | 18 | 31 | 7 | – | – | 104 | 115 | – | – |
| CCOc1ccc(C[C@@H](N)C(=O)N[C@H](Cc2c[nH]c3ccccc23)C(=O)N[C@@H](Cc2ccccc2)C(=O)N[C@H](Cc2c[nH]c3ccccc23)C(=O)N[C@H](CN[C@@H](CC(C)C)C(N)=O)CC(C)C)cc1 [(5)] (H-[dY](Et)[dW]F[dW]-X2) | avoided | 137 | 67 | 17 | 9 | 7 | – | – | 155 | 105 | – | – |

Source: patent EP0556962A1, “Small peptide and pseudopeptide amides inhibiting the proliferation of small-cell and epithelial-cell lung cancer cells” (RICHTER GEDEON VEGYESZETI GYAR R.T., priority 1992, dated 1993)
